The whole screen tested about 220,000 compounds, of which about 16,000 (7.3%) were called active. Inconclusive results, whose numbers are uncertain, are shown with a selection of clear calls. Calls follow the shape of the dose curve; as a rule, active = well fitted inhibition curve with a large enough effect (not every such curve was filed as active); inconclusive = small, poorly fitted or top-dose-only effect, or another doubt; inactive = no such curve, though single readings can be large or run the other way. Potencies of inconclusive entries are doubtful fits and often do not repeat.
These molecules were tested against Aldehyde dehydrogenase 1A1 (Homo sapiens) (UniProt P00352) (assay: qHTS Assay for Inhibitors of Aldehyde Dehydrogenase 1 (ALDH1A1)). Conditions: Purified ALDH1A1, NADH fluorescence, propionaldehyde substrate; series mostly up to 75.3 µM; activity, negative = inhibition: at the top concentration.
UniProt P00352, sequence (P00352 whole entry, looked up): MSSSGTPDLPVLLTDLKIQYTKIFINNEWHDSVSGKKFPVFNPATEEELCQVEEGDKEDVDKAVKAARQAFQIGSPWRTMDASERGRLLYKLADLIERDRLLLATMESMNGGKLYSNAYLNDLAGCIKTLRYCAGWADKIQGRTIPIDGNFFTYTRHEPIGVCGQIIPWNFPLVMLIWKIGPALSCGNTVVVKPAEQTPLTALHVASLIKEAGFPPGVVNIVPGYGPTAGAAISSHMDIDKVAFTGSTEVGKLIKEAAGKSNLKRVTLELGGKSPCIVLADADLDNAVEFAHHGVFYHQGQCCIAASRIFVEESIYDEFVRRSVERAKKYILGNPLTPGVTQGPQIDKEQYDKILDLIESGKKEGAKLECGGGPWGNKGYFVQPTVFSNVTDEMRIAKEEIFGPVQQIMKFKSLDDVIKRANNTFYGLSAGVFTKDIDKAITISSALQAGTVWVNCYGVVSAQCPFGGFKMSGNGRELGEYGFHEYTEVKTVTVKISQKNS

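For activity, negative = inhibition in this document: plate controls were no enzyme wells and a reference inhibitor.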
Potency is read from the fitted curve at half-maximal effect; tags tell the direction and shape of the fitted curve.

Potency, inconclusive:
O=C(c1cc(=O)[nH]c2ccccc12)N1CCc2ccccc2C1 39.8 µM [inhibitor, single point]
CCOc1cc(C2Nc3ccccc3C(=O)N2c2ccccc2)c(Br)cc1OCC(=O)O (stereo unspecified) 28.2 µM [inhibitor, partial curve]
O=C(COC(=O)CCOc1ccccc1)Nc1ncc(Cl)cc1Cl 39.8 µM [inhibitor, single point]
CCCCCCCC/C=C\CCCCCCCC(=O)N(CCO)CCO 39.8 µM [inhibitor, single point]
Cc1noc(C)c1COc1ccc(C(=O)OCC(=O)N2CC(=O)Nc3ccccc32)cc1 44.7 µM [inhibitor, single point]
CCOC(=O)C1CCCN(C(=O)CC(C)c2ccccc2)C1 (stereo unspecified) 22.4 µM [inhibitor, single point]
NC(=O)c1sc2nc3c(c(-c4cccnc4)c2c1N)CCC3 39.8 µM [inhibitor, single point]
Cn1cccc1C(=O)N1CCC[C@@]2(CCN(Cc3ccc(C#N)cc3)C2)C1 39.8 µM [inhibitor, single point]
COc1ccc(-n2cnc3cc(NCc4cccs4)ccc32)cc1 31.6 µM [inhibitor, single point]
C=CCc1cccc(OC)c1OCCOCCNCCO 15.8 µM [inhibitor, partial curve]
O=C(c1ccc(Cn2cc(Cl)cn2)o1)N1CCN(Cc2ccc3c(c2)OCO3)CC1 35.5 µM [inhibitor, single point]
O=[N+]([O-])c1ccc(/C=N/Nc2nc(N3CCCCC3)nc(N3CCCCC3)n2)cc1 25.1 µM [inhibitor, single point]
COC(=O)c1c(NC(=O)COC(=O)c2ccc(C)s2)sc2c1CCCCC2 39.8 µM [inhibitor, single point]
C=CCn1c(O)c(N=NC(=O)OCC)c2ccccc21 39.8 µM [inhibitor, single point]
CCc1cccc(C)c1NC(=O)COC(=O)c1ccc2c(c1)S(=O)(=O)c1ccccc1C2=O 3.16 µM [inhibitor, full curve]
CCN1C(=O)C(CC(=O)Nc2ccc(F)cc2)N(Cc2ccc3c(c2)OCO3)C1=S (stereo unspecified) 7.94 µM [inhibitor, full curve]
CN(C)c1cccc(C(=O)OCC(=O)Nc2ccccc2Sc2ccccc2)c1 31.6 µM [inhibitor, partial curve]
O=C(Nc1ccc(C(=O)O)cc1)/C(=C\c1ccc([N+](=O)[O-])cc1)NC(=O)c1ccc(Br)cc1 35.5 µM [inhibitor, single point]
Fc1cccc(Cc2noc(CN3CCCCC3c3ccccn3)n2)c1 (stereo unspecified) 14.1 µM [inhibitor, partial curve]
Cc1ccc(-c2cc(C(=O)NCC3CCCO3)c3ccccc3n2)cc1C (stereo unspecified) 31.6 µM [inhibitor, single point]
CCOC(=O)c1c(C2CCN(C(=O)OCC)CC2)nc2ccccn12 44.7 µM [inhibitor, single point]
COc1ccccc1[C@@H]1C(c2cccc(C)c2)=NN(c2ccc(Br)cc2)[C@H]1C(=O)N1CCOC1=O 28.2 µM [inhibitor, partial curve]
O=C(N/C=C\c1ccccc1)NCc1ccc(Cl)cc1Cl 37.7 µM [inhibitor, single point]
O=c1cc(CN2CCN(c3ccccc3F)CC2)c2cc3c(cc2o1)CCCC3 39.8 µM [inhibitor, single point]
CCOc1ccc(NC(=O)c2cc3cc4ccc(OC)cc4nc3o2)cc1 28.2 µM [inhibitor, partial curve]
O=C(CCN1C(=O)c2ccccc2S1(=O)=O)Nc1nc2c(s1)CCCC2 25.1 µM [inhibitor, single point]
S=C(NCc1ccco1)N1CCN(Cc2ccc(Cl)cc2Cl)CC1 25.1 µM [inhibitor, single point]
O=S(=O)(c1ccccc1)N1CCC2(CCCN(Cc3ccncc3)C2)CC1 25.1 µM [inhibitor, single point]
CCOc1ccc(Oc2c(C)oc3cc(O)ccc3c2=O)cc1 39.8 µM [inhibitor, single point]
CCCn1c(N)c(C(=O)CSc2nc3ccccc3c(=O)n2Cc2ccccc2)c(=O)[nH]c1=O 0.355 µM [inhibitor, full curve, poor fit]
N#Cc1c(C(F)(F)F)cc(-c2ccccc2)nc1SCC(=O)N1CCOCC1 39.8 µM [inhibitor, single point]
CC1(C)Oc2ccc3ccc(=O)oc3c2C(/C=N/O)C1=O (stereo unspecified) 4.47 µM [inhibitor, full curve]
COc1cccc(NC(=O)COC(=O)C2CCN(S(=O)(=O)c3cccs3)CC2)c1 39.8 µM [inhibitor, single point]
O=C(N/N=C/c1cn(-c2ccccc2)nc1-c1cc2ccccc2o1)c1cccnc1 25.1 µM [inhibitor, partial curve]
CCCOc1ccc(C(=O)NNC(=S)NC(=O)c2cc(-c3ccc(Cl)cc3)nc3ccccc23)cc1 31.6 µM [inhibitor, single point]
CCCc1nnc(NC(=O)CCC(=O)N2CCN(c3nc(C)cc(C)n3)CC2)s1 28.2 µM [inhibitor, single point]

Potency, active:
O=[N+]([O-])c1ccccc1-c1ccc(C(=S)N2CCCC2)o1 2.24 µM
O=C(Cn1cc(C(=O)c2cccs2)c2ccccc21)NCc1ccc2c(c1)OCO2 14.1 µM
CCOc1ccc(C(C)=O)cc1CSc1nnc(-c2ccoc2C)n1N 22.4 µM
O=C(CCNc1ccc(F)cc1)c1cc2ccccc2o1 0.1 µM
O=C1CC(NC23CC4CC(CC(C4)C2)C3)C(=O)N1c1ccc2c(c1)OCO2 (stereo unspecified) 11.2 µM
CS(=O)(=O)N1CCN(c2ccccc2NC(=O)C(c2ccccc2)c2ccccc2)CC1 6.31 µM
CCN(CC)S(=O)(=O)c1cccc(NC(=O)c2ccccc2Br)c1 11.2 µM
O=Nc1ccc2oc(=O)ccc2c1 0.126 µM
S=c1[nH]ncn1/N=C/c1ccc(Br)cc1 31.6 µM
Cc1ccc(NC(=O)CN2C(=O)S/C(=C\c3cc(C)n(-c4cccc(C(=O)O)c4)c3C)C2=O)cc1 12.6 µM
CC1(C)CC(=O)C(=CN2CCN(C(=O)c3ccco3)CC2)C(=O)C1 22.4 µM
CC1CCCN(C(=O)CN2CCN(C(=O)c3ccco3)CC2)C1 (stereo unspecified) 22.4 µM
Cc1cc(C(F)(F)F)n(-c2nc(C(=O)NN)cs2)n1 2.24 µM

activity, negative = inhibition, inactive:
COc1ccc(CN2CC(C(=O)NCCC(C)C)CC2=O)cc1 (stereo unspecified) -11.9%
CCOC(=O)C(NC(=O)Nc1ccc(Cl)cn1)(Oc1ccccc1)C(F)(F)F (stereo unspecified) 7.7%
O=C(CN1CCCCCC1)N1c2ccccc2C=Cc2ccccc21 -5.87%
Cc1ccc(S(=O)(=O)N2CCN(S(=O)(=O)N3CCCCC3)CC2)cc1 6.76%
O=C(NC1CCCc2ccccc21)c1ccc(CNc2c(N3CCOCC3)c(=O)c2=O)cc1 (stereo unspecified) 0.51%
CCOc1ccc(CNC(=O)c2ccc(Sc3ccc(C)cc3)c(NC(C)=O)c2)cc1 -18.8%
CN(C)c1ncnc2c1ncn2C1OC(CO)C(O)C1O (stereo unspecified) 6.8%
NS(=O)(=O)c1ccc(NC(=O)C2(c3ccccc3)CCCC2)cc1 5.07%
CCCc1cc(C(=O)NNC(=S)NC(C)c2ccccc2)cs1 (stereo unspecified) -5.41%
Cn1c(=O)c2cc(S(=O)(=O)NCCC(=O)NC3CCCCCC3)ccc2n(C)c1=O -4.56%
Cc1nn(Cc2n[nH]c(=S)n2Cc2ccccc2)c(C)c1Cl -12.3%
CCOC(=O)CN=C/C(C(=O)Nc1nccs1)=C(/C)O -4.62%
COc1ccccc1/C=C/C(=O)c1c2c(c(C)[nH]c1=O)CCCC2 -5.87%
CC(=O)Nc1ccc(-c2cc(NC(C)=O)n(-c3ccccc3)n2)cc1 5.43%
CC(C)CN1C2CCCC1CC(NC(=S)NCc1ccco1)C2 (stereo unspecified) 1.69%
Brc1ccc(-c2nc(-c3ccccn3)no2)o1 1.2%
Cc1ccc(-n2c(Cc3ccccc3)n[nH]c2=S)cc1 -8.11%
Fc1ccccc1OCC1CCCN(Cc2nc(CC3CC3)no2)C1 (stereo unspecified) 2.84%
Cn1c(=O)c2[nH]c(SCc3ccccn3)nc2n(C)c1=S -3.07% [at 13.5 µM]
COc1cc(C(=O)O)nc(OC)n1 -4.84%
CC(C)(C)c1ccc(Oc2ccc(NC(=O)c3ccccc3C(=O)O)cn2)cc1 3.04%
Cc1cc(C(=O)N/N=C/c2ccc([N+](=O)[O-])cc2)c2ccccc2n1 4.06%
COC(=O)NCC12CC3CC(C1)CC(CNC(=O)OC)(C3)C2 9.95%
O=S(=O)(c1ccccc1Cl)N1CCC(O)(c2ccc3c(c2)OCO3)CC1 -9.12%
Cc1ccc(S(=O)(=O)/C(C#N)=C/c2c(Oc3ccc(Cl)cc3)nc3c(C)cccn3c2=O)cc1 9.22%
O=C(N(c1ccccc1)c1ccccc1)N(c1ccccc1)c1ccccc1 -12.7%
O=C(CSc1nnc(-c2ccco2)o1)N1c2ccccc2CCc2ccccc21 -7.62%
